# Test results from the RNAGym collection of RNA variant scans (doi:10.1093/nar/gkz1192).
# Read counts are not given, so values of variants with three or more changes are uncertain.
# B1: CPEB3 Ribozyme (parent)
# chain: UAACAGGGGGCCACAGCAGAAGCGUUCACGUCGCAGCCCCUGUCAGAUUCUGGUGAAUCUGCGAAUUCUGCUGUAUAUCUC
# Variants of: B1
# Test: self-cleavage, relative activity (ratio to wild type); higher = more cleavage; in vitro, sequencing
# Outline: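 After error-prone PCR and barcoding, CPEB3 ribozyme mutant libraries were transcribed with T7 RNA polymerase at 37°C for 5 hours, then given 15 min with DNase I before an EDTA stop, and they cleaved during both steps. Reverse transcription with template switching preceded Illumina sequencing. Relative activity divides a variant's cleaved/total read fraction by the unmutated ribozyme's. At least 5 reads were required per variant, and three batches were averaged.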
row,Variant,self-cleavage
1,U48C C68A U69C,0.25
2,U49C U60C U67C,0.17
3,U48C U51A U69C U72G,0.2
4,U51A U66C U67C U72C,0.46
5,A47U U54C A57G U67C,0.12
6,U51A A56U A57G,0.29
7,U51G A64U U78C,0.2
8,U51A U54A U58C,0.43
9,U51C A75U U76A,1.2
10,U48C A65G U72A,0.29
11,G52A U54C U69C,0.78
12,U48C A56U U67C U72A,0.08
13,U51A U72A A75G U78C,0.49
14,U49C U69G U78C,0.22
15,U48C U54A U66C,0.17
16,U48C U60C U80C,0.45
17,U48C U54G A64U U80C,0.12
18,U51C G61A A77C,0.42
19,U49C U51A U60C,0.37
20,U49G U54A U60G,0.38
21,U51C U54C U60C C62U,0.47
22,U51G A65G U80C,0.33
23,U49A U51G A65G,0.06
24,U51A G52C U60G A65G,0.6

row,Variant,self-cleavage
1,U51A U54G A77U,0.43
2,U49A U69C U76C,0.22
3,U51C C62U A64U U69C,0.28
4,U48A U49C U67C,0.09
5,U49A A57G U66C,0.14
6,U48A A64G U67C,0.14
7,U49C G61A A64G U67C U69A,0.12
8,U49C A57G G61U,0.13
9,U48C U54C A65G,0.14
10,U51G U54G C62U U76C,0.14
11,U49C U60C U80A,0.19
12,U48C U54C A65C U67C,0.12
13,U49C U67C U69A U78C,0.11
14,U49C U60G A65G,0.18
15,C50A C62U U80A,0.17
16,U51A U60A U69C A75U,0.67
17,U51A U54C A56G U78C,0.59
18,U49C U69A U80C,0.07
19,U51A A57G U67A U69A,0.27
20,G52A A65G U67A,0.16
21,U49C C62U G73A,0.04
22,U48C A56G U67A U74A A77U,0.2
23,U48C U49C U69A,0.08
24,U51A C59U U69C U78C,0.6

row,Variant,self-cleavage
1,U49C U51A U54A U72C,0.93
2,U48C U49C U54G U66C,0.13
3,U51C U72A A75G,0.95
4,A47U U60A G63U U72C,0.21
5,U49C C71A A77G,0.12
6,C50G A65U U67C U72C,0.06
7,U48C U51A U72C,0.3
8,U51C A56G U60C,0.37
9,U51A U67C U78C,0.4
10,U49A U54A U67C U72C,0.42
11,U51A U67A C81U,0.63
12,U51C A64G A77G U78C,0.54
13,U48C U66C U72C A77G,0.17
14,U49A U51C U60G A65G,0.23
15,C50U U54G U60C A75U,0.17
16,U48A U60C U78A,0.17
17,U49C A64G U69C,0.15
18,U48C U51A C62G,0.14
19,U51A U54C A57G,0.61
20,U48C U49C U60C,0.45
21,U49C U51C G52U,0.15
22,U49C U69A U72A,0.13
23,U51C A64U U67C U72C,0.52
24,U51C G52U A56G,0.83

row,Variant,self-cleavage
1,U51C U60A A77G,0.34
2,U49C U58G U69A,0.46
3,A47U U66C U78A,0.43
4,U51C U58G U78C,0.18
5,U48C A57G U58C A64G,0.84
6,U51C U58C U67C,0.44
7,U51A U60C U76A,0.76
8,U49C G61C U66C,0.12
9,U51C A57G C59U,0.47
10,U48C C62U A64U C81A,0.2
11,U49C U54G U72A,0.13
12,A47U U72G U78A,0.2
13,U51C A56G A64G U78C,0.34
14,U51C U54C A56G,0.74
15,U51A U60C U72C A77G,0.63
16,A47U U54C A75G,0.2
17,U51A C68U A77G,1.02
18,U51C C71A U72C,0.52
19,U49C A57G C81G,0.32
20,U51C A56U U60C U72C,0.17
21,U51A A64G U66C,0.43
22,U49C A64G U80C,0.26
23,U51A U58G A64G,0.15
24,U49A A56G U74C,0.81

row,Variant,self-cleavage
1,U51A A56G U80C,0.43
2,U48C A57G G70C U80A,0.18
3,U51C U67C A77G,0.41
4,U49C A65U U66C,0.15
5,U49A U72A U78C,0.61
6,U51G G52A G53A,1.19
7,A47U U58C U76A U80A,0.5
8,U51G A56G G70C,0.12
9,U49A U58C U76A,0.28
10,U51A A65G U80C,0.23
11,A47U U51C U66A U72A,0.14
12,U48C A56G U60C U67A,0.17
13,U49C U66C U78C,0.18
14,U51G A64G U72A U78C,1.02
15,U51A U54C U58A U80C,0.28
16,A47U U69C C81A,0.58
17,U48C U49C G63A A75G,0.09
18,U49A U60C U76C,0.41
19,C50U A56G U67A,0.43
20,U49C A56G U66A A77G,0.46
21,U51C U54C A56U U66A,0.27
22,U49C A65G U78A,0.33
23,U48A U69C U76G,0.17
24,U48C A56G U78C,0.38

row,Variant,self-cleavage
1,U49A A65G G70C,0.14
2,U51A U58A A64G U66A U74C,0.45
3,U51C C62U A65G U66C U67C A75U,0.18
4,U48C U49C U51A A56G C62U,0.08
5,U49C U58C U76A,0.13
6,U49C G63U C79U,0.35
7,U51C U76C A77G,1.13
8,U51C U67C U69G,0.38
9,U51A U54C A65G,0.54
10,U49C U54A U72C,0.27
11,U49C C62G U72A,0.21
12,A47U U60C U72C,0.11
13,U49A C68A U72C,0.43
14,C50A U60C U66G,0.21
15,U49C A65G U72C G73C U76A,0.12
16,U48C A57U U58C U60A A75G,0.37
17,C50U U51C U78C,0.86
18,U51G U54C U60C,0.51
19,U48C G70A U72A,0.3
20,U48C A57G C68U,1.16
21,U48C U66C U69G,0.32
22,U51C C59A A64G U78C,0.34
23,U48C U51C U72C,0.31
24,U51C A57G U60A U67A U76A A77U,0.32

row,Variant,self-cleavage
1,U48C A57G U58C,0.7
2,U51C U74G A77U,1.28
3,U48C A64G C81A,0.6
4,C50U G73U A75U,1.29
5,U49C A65G U67C,0.42
6,U51C U58C G63C,0.47
7,U51C U66C U78A,0.55
8,U48G U49C U69C U76A A77U,0.05
9,U51A U58C A65G,0.46
10,U51C U76A U80C,1.25
11,U49A U66C U72C A77U,0.39
12,U49C U66C U69A,0.17
13,U51A U67C U72C,0.25
14,U49C G61U U72C,0.1
15,U48C U49C U51A,0.08
16,U51C A56U U69G,0.37
17,U48A A65G U69C A75U,0.14
18,U51A U54C U76C,1.14
19,G52A A57G A64C U69C,0.44
20,A47U U58C U69A,0.12
21,U51C U66A U78C,0.42
22,U48A A64U A65G,0.09
23,U48C U51A U66C,0.26
